This sample is rich in variants without activity.
B1: TPR 5TU (parent)
chain: GGAUCUUCUCGAUCUAACAAAAAAGACAAAUCUGCCACAAAGCUUGAGAGCAUCUUCGGAUGCAGAGGCGGCAGCCUUCGGUGGCGCGAUAGCGCCAACGUUCUCAACUAUGACACGCAAAACGCGUGCUCCGUUGAAUGGAGUUUAUCAUG

Variants of: B1
Experiment: polymerase ribozyme fitness, log enrichment relative to wild type (log ratio); higher = more active; in vitro selection for triplet polymerase activity
How it was run: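 Fitness measures genotype enrichment against wild-type enrichment on a logarithmic scale, with inverse-variance-weighted averaging of replicates. The logarithm is base 2, and genotypes were kept only with ≥10 input reads and ≥1 read per output in Illumina sequencing. The sequenced libraries came from one triplicate in vitro selection round, including frozen incubation at −7 °C, of PCR-built, transcribed mutant libraries of each subunit of a heterodimeric triplet polymerase ribozyme.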

| Variant | polymerase ribozyme fitness (log ratio) |
| --- | --- |
| G83A U104G A120G | -1.21 |
| G84U A106G U109A A121U C131A G141A U145A | ≤ -4.2 |
| C85U A97U C99G C114A | ≤ -4.2 |
| G86U C123A | -1.99 |
| C85U C103G | -3.48 |
| G83U C114G A115U A119U | ≤ -4.2 |
| G86U A138U | ≤ -4.2 |
| C85G C114G C129U U135G | ≤ -4.2 |
| C85U C93A U144A | ≤ -4.2 |
| C85U A120G | -1.65 |
| C85A U90C C116A A121U G124U G126C G136U | ≤ -4.2 |
| U82G G84C A142U | ≤ -4.2 |
| G83C C103G | ≤ -4.2 |
| G86C A142C | ≤ -4.2 |
| G86C A142G | ≤ -4.2 |
| G83A C118U G128A | ≤ -4.2 |
| G86A U109C C123A C132G | ≤ -4.2 |
| C85A A106G U135G A142U | ≤ -4.2 |
| C85G A119G | -1.7 |
| G83U G84U C105G C118U | ≤ -4.2 |
| C87A C93G C96U A107U A137G | ≤ -4.2 |
| C85G U104G G141U | ≤ -4.2 |
| G84U C93G U134A | ≤ -4.2 |
| G83U A120U G141C | -0.804 |

| Variant | polymerase ribozyme fitness (log ratio) |
| --- | --- |
| C85A G86C A110C C149G | ≤ -4.2 |
| G86U G88A A107C C123A A138U | ≤ -4.2 |
| C85G C87G C103U C132U U134A U135C U145A | ≤ -4.2 |
| G84U U90G | ≤ -4.2 |
| G83C G92A G126U G128A U139C | ≤ -4.2 |
| C87A C93G C108G | ≤ -4.2 |
| G84C U102G G140U | ≤ -4.2 |
| G86C U111G C116G | ≤ -4.2 |
| C85A C87G C129G G141C | ≤ -4.2 |
| C85U A110G C114G C125A | ≤ -4.2 |
| C85U A97C G112C G133C | ≤ -4.2 |
| C85G C125G U127A A137G | ≤ -4.2 |
| C85U C108U | -3.1 |
| C85U C108G | ≤ -4.2 |
| G84A G100A A106G A113U G117U C123U A142C | ≤ -4.2 |
| C85G A115U A121G A142G U144G | ≤ -4.2 |
| G83U C108U | ≤ -4.2 |
| C85U U102G C103A A137G | ≤ -4.2 |
| G83U A97G A110U G117U | -3.7 |
| C85G G86A A119C | ≤ -4.2 |
| G83A A91C | ≤ -4.2 |
| C85U G140U | -2.51 |
| G86C A89U | -2.94 |
| C85G C87A A91U G124C | ≤ -4.2 |

| Variant | polymerase ribozyme fitness (log ratio) |
| --- | --- |
| C85U U101G C125U C129A | ≤ -4.2 |
| C85A A89U C105U G133A U134G U145G | ≤ -4.2 |
| C85A A91U C95A | ≤ -4.2 |
| G84U C118G | ≤ -4.2 |
| G83C C95G A97U C132G | ≤ -4.2 |
| C85G A106U A107C G133C G141C | ≤ -4.2 |
| G83U G84C C99G | ≤ -4.2 |
| C85G C95A C99G C103G G124U | ≤ -4.2 |
| G84A G94U G128U | ≤ -4.2 |
| G84C C99A A142C | ≤ -4.2 |
| C85U U102G | -3.32 |
| C85A G143U | -2.37 |
| C85A G143C | -3.01 |
| G86C A106G A142C | ≤ -4.2 |
| C85U G86U A91C G124A G141A U148A | ≤ -4.2 |
| G83A C95G A115U C125A U135A | ≤ -4.2 |
| C85A C93U C123G G124U | ≤ -4.2 |
| G84U U148A | ≤ -4.2 |
| G84U U148G | ≤ -4.2 |
| C85A U130A C132G | ≤ -4.2 |
| G84U G133U | ≤ -4.2 |
| U82G G86U U109C G143A U145C | ≤ -4.2 |
| C85G A122G C131A C132A | ≤ -4.2 |
| G84U A120U | -2.07 |

| Variant | polymerase ribozyme fitness (log ratio) |
| --- | --- |
| C85G A121U U151G | ≤ -4.2 |
| G83U U101A A115U G117U | ≤ -4.2 |
| C87A C93G G143C U146G | ≤ -4.2 |
| C85G C125A U144A | -3.57 |
| C85G A89C | ≤ -4.2 |
| C85U C93A A98G A106U G112A A137U | ≤ -4.2 |
| G83U C93G A142U | ≤ -4.2 |
| G84U C96U A122G C149G | ≤ -4.2 |
| G83C A107C | ≤ -4.2 |
| C85U G92A G143C | ≤ -4.2 |
| C85U G92A G143U | -4.16 |
| G86A C103U | -1.01 |
| G83A C125A | -0.344 |
| C85G A107C | ≤ -4.2 |
| G86U C99G | -3.67 |
| C85U C99G | -1.07 |
| C85U C99U | -2.35 |
| G84U A97C | ≤ -4.2 |
| C85A C93A G141U | ≤ -4.2 |
| G83U A97U | ≤ -4.2 |
| G83A U135C | -2.09 |
| C85U G143C | -1.66 |
| C87A A113U A119G | ≤ -4.2 |
| G86A C87U U144C | ≤ -4.2 |

| Variant | polymerase ribozyme fitness (log ratio) |
| --- | --- |
| G83A A150C | -3.77 |
| C87A A89U | ≤ -4.2 |
| C85A C96G A97U | ≤ -4.2 |
| G84U U101G G143U | ≤ -4.2 |
| C85U C99U C108U C116U A147U C149U | ≤ -4.2 |
| C87A A113U | ≤ -4.2 |
| C85U G136C U151C | ≤ -4.2 |
| C85G A110C C116U G140A | ≤ -4.2 |
| C85A C93G | ≤ -4.2 |
| C85G G136A | -1.31 |
| C85A G94C G140C | ≤ -4.2 |
| C87A A115G | ≤ -4.2 |
| C85A C95G U101A C118U | ≤ -4.2 |
| G83U A89G C103A C108G U134C A142C | ≤ -4.2 |
| C85U U148G | ≤ -4.2 |
| G83U A89G C95U C103G | ≤ -4.2 |
| U82G G83C C116U U139C | ≤ -4.2 |
| C87A C103U C108A A110C C132A | ≤ -4.2 |
| C85A G117C C118A A147U | -0.0649 |
| G83C U134A A138U | ≤ -4.2 |
| G86U U102C A110U U111G G126A A142G A147G | ≤ -4.2 |
| G86U C114U G124C | ≤ -4.2 |
| C85U U127C A137U | ≤ -4.2 |
| C85G U130G | ≤ -4.2 |

| Variant | polymerase ribozyme fitness (log ratio) |
| --- | --- |
| C85G C116G G141U | ≤ -4.2 |
| G83U G84A G100A G128A | ≤ -4.2 |
| C85A C87U A98C | -3.62 |
| G83U C95U | -1.53 |
| G84U C108A C118U C123A | ≤ -4.2 |
| G86C G117A | -1.84 |
| G83C C96G A106U U109C G117A G143A | ≤ -4.2 |
| G84U C95U G143C | -3.33 |
| G86U C103A A121G | -2.73 |
| G86U A107U G141U | ≤ -4.2 |
| G83A U134A | -2.04 |
| G84C C114U A115G C125A G128A | ≤ -4.2 |
| G83C C96A A150C | -3.75 |
| C87A C96A | ≤ -4.2 |
| C85A G86U A89U A91G | ≤ -4.2 |
| G86U C96G U102G A138U U139C | ≤ -4.2 |
| C85U C95G | -2.03 |
| G83A C95U C108A G126U C131G | ≤ -4.2 |
| C85A C96U A119C | -0.783 |
| G83U A89G C96G U127A | ≤ -4.2 |
| G84C C105A C114U C125U U134C A137U A138C G143U | ≤ -4.2 |
| C85U A150C | -2.26 |
| G86U C96U C125U A142C | ≤ -4.2 |
| C85U C96G U135C | -2.57 |

| Variant | polymerase ribozyme fitness (log ratio) |
| --- | --- |
| C85G C114G G141U | -4.17 |
| G84A C95A U104C | -0.367 |
| C85U G88U U104G G124A A150G | ≤ -4.2 |
| C85U G88C G117U A119U G141A | ≤ -4.2 |
| C85A G92A A106U A107U | ≤ -4.2 |
| C87A C103U A138C | ≤ -4.2 |
| G86A C87A | ≤ -4.2 |
| G86U G92U C114A | ≤ -4.2 |
| C85U U101G C125U | -0.351 |
| G84U C108U U127A G133U G141C | ≤ -4.2 |
| G84C G94A | -4.07 |
| C85A C116G | -0.2 |
| C87A C114G | ≤ -4.2 |
| C87A C114U | ≤ -4.2 |
| C85A C129U | -0.397 |
| G84U G94C U134A | ≤ -4.2 |
| C87A A106U C129G G136A | ≤ -4.2 |
| C85G G94A G117U G124U U135G | -3.69 |
| G86A U101G A107G A121C G126C | ≤ -4.2 |
| C85A A138U | ≤ -4.2 |
| G86U C96A U135C | ≤ -4.2 |
| G84A C85G A106G | ≤ -4.2 |
| C85U C87U C93U U101C G140C A142C | ≤ -4.2 |
